The source of these data is the supplement of paper PMC3656093.

Each structure is given as a SMILES string. “And” between values parts separate entries of the source, which are not always exact repeats. Identical values can stand only once. ± gives the standard deviation of the averaged measurements. Over roughly 1,900 compounds, “CD40L-induced NF-kB luciferase activity, plate-corrected, relative to DMSO (0) and IKK inhibitor VII (-100) controls” has its median near 0.032; the lowest 2% begin near -26. Some of the results follow.

The experiment has as its system BL2-NFkB-Luc. Kind of experiment: CD40L-induced NF-kB luciferase activity, plate-corrected, relative to DMSO (0) and IKK inhibitor VII (-100) controls (% normalized activity); higher = more NF-kB reporter activity (less inhibition). As to conditions: 9.4 µM; stimulus: tCD40L 64 ng/ml; 4.5 h. How it is done:
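BL2 B cells with a stable NF-kB response-element luciferase reporter (BL2-NFkB-Luc), 384-well. Cells were pre-incubated with compound at 9.4 uM for 1 h at 37 C, then stimulated with 64 ng/ml trimerized CD40L for 4.5 h; luciferase was read with Steady-Glo. Signal was normalised per plate in Genedata (median DMSO neutral control = 0, median IKK inhibitor VII at 50 uM = -100) with Assay Median plate-pattern correction; duplicate plates.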
`CC(C)CC(NC(=O)c1cccc(Cl)c1)C(=O)O` (stereo not given): the “CD40L-induced NF-kB luciferase activity” value is -5.1 ± 1.4. As for `CNCCc1ccccn1`, the figure is 2.37 ± 0.81. For the compound `CC(C)CCNC(=O)[C@H](CC(C)C)NC(=O)[C@H]1O[C@@H]1C(=O)O`, the “CD40L-induced NF-kB luciferase activity” value is -0.145 ± 0.1.

For the compound `CC(=O)OC[C@H]1O[C@@H](Sc2cccc3cccnc23)[C@H](OC(C)=O)[C@@H](OC(C)=O)[C@H]1OC(C)=O`, the “CD40L-induced NF-kB luciferase activity” value turned out to be 3.41 ± 2.8. In the case of `CCOc1ccc(N2C(=O)CNC2=S)cc1` it was -2.26 ± 4.6; in that of `CC1(C)C2CCC1(C)C(OCC[N+](C)(C)CC(=O)OC1CCCCC1)C2` (stereo not given), -6.1 ± 2.5; in that of `O=C(/C=C/c1ccccc1)NCC1(c2ccccc2)CCOCC1`, 3.43 ± 3. As for `Cc1ncc(CN2CCC(CO)(CCc3ccccc3)CC2)s1`, the “CD40L-induced NF-kB luciferase activity” value was found to be 1.42 ± 1.1. Consider `CC(C)CN(C)Cc1c(C(=O)N2CCc3ccccc3C2)nc2ccc(Cl)cn12`, for which the “CD40L-induced NF-kB luciferase activity” value is -0.418 ± 4.4. Take `COc1ccc(C(=O)N2c3cc4c(cc3C(C)=CC2(C)C)OCO4)cc1`: the “CD40L-induced NF-kB luciferase activity” value is -5.02 ± 1.2.

As for `COc1ccc(CCn2c(C)cc3c(c2=O)C(c2ccncc2)C(C#N)=C(N)O3)cc1OC` (stereo not given), the “CD40L-induced NF-kB luciferase activity” value was -4.86 ± 1.2. As for `NC(N)=NC(N)=Nc1ccc2ccccc2c1`, the figure is 6.98 ± 2.5.

For the compound `Cc1cc(C(=O)NC(CC(C)C)C(=O)O)cc(C)c1[N+](=O)[O-]` (stereo not given), the “CD40L-induced NF-kB luciferase activity” value is -4.09 ± 5.2. With `CC(=O)O[C@]1(C(C)=O)CC[C@H]2[C@@H]3C=C(Cl)C4=CC(=O)CC[C@]4(C)[C@H]3CC[C@@]21C`, the “CD40L-induced NF-kB luciferase activity” value was -9.6 ± 7.8. As to `CCCNC(=O)NS(=O)(=O)c1ccc(Cl)cc1`, the “CD40L-induced NF-kB luciferase activity” value is -4.66 ± 4. `Cc1csc(N)n1`: the “CD40L-induced NF-kB luciferase activity” value turned out to be 0.894 ± 2.2. `O=C(O)C1CSC(c2ccco2)N1` (stereo not given): the “CD40L-induced NF-kB luciferase activity” value is -2.59 ± 6.5. As to `CC(C)(C)N1NC2(CCCCC2)NC1=S`, the “CD40L-induced NF-kB luciferase activity” value came to 3.77 ± 0.47.

For `COc1ccc(CC(=O)Nc2cccc(C(=O)Nc3ccccc3C(=O)O)c2)cc1OC`, the “CD40L-induced NF-kB luciferase activity” value was -2.42 ± 3.4.

`CC(=O)C1=C(NC(=O)c2ccc(C(F)(F)F)cc2)C[C@@H]2[C@H]1C2(C)C`: the “CD40L-induced NF-kB luciferase activity” value is -3.93 ± 2.1.

Take `CSCC[C@H](NC(=O)NC1CCCC1)C(=O)O`: the “CD40L-induced NF-kB luciferase activity” value worked out at 3.41 ± 6. For the compound `COc1ccc2c(C=O)cn(C)c2c1`, the “CD40L-induced NF-kB luciferase activity” value is -5.51 ± 1.9. On to `COC(=O)[C@H]1[C@H]2C[C@@H]3c4[nH]c5cc(OC)ccc5c4CCN3C[C@H]2C[C@@H](OC(=O)c2ccc(N)cc2)[C@@H]1OC`, for which the “CD40L-induced NF-kB luciferase activity” value is -0.742 ± 0.17. On to `CC(C)CC(NC(=O)CNC(=O)C1O[C@@H]2OC(C)(C)O[C@@H]2[C@H]2OC(C)(C)O[C@@H]12)C(=O)O` (stereo not given in full), for which the “CD40L-induced NF-kB luciferase activity” value turned out to be 1.62 ± 3.9. Turning to `Cc1c(Cc2ccccc2)c(=O)oc2c(CN(C)C)c(O)c(Cl)cc12`, the “CD40L-induced NF-kB luciferase activity” value was -6.41 ± 3.5. Turning to `COc1ccc(-c2cc(=O)oc3cc(OC(C)C(=O)O)ccc23)cc1` (stereo not given), the “CD40L-induced NF-kB luciferase activity” value was -2.42 ± 4.5. `OCCN(CCO)c1nc(N2CCCCC2)c2nc(N(CCO)CCO)nc(N3CCCCC3)c2n1`: the “CD40L-induced NF-kB luciferase activity” value turned out to be 0.567 ± 4.5.

Regarding `CC(C)C12CN3CC(C(C)C)(CN(C1)C3c1ccccc1)C2O` (stereo not given), the “CD40L-induced NF-kB luciferase activity” value was -4.59 ± 1.2. As for `CCn1c(=N)c(C(=O)NC)cc2c(=O)n3cccc(C)c3nc21`, the figure is 0.825 ± 8.5; as for `CC(=O)C1=C(Nc2ccc(C)cc2)CC(C)(O)C(C(C)=O)C1c1ccco1` (stereo not given), -3.88 ± 0.67. As for `O=[N+]([O-])c1ccc2cn[nH]c2c1`, the figure is -4.3 ± 4.4; as for `Cc1ccc(CSCC(=O)NCCCN2CCOCC2)cc1`, -4.41 ± 6.1. Turning to `COc1ccc(C(=O)NC(=O)NC2(C(Cl)(Cl)Cl)OCCO2)cc1`, the “CD40L-induced NF-kB luciferase activity” value was -0.197 ± 3.6. `C[C@@H]1C[C@H]2[C@@H]3CCC4=CC(=O)C=C[C@]4(C)[C@@]3(F)[C@@H](O)C[C@]2(C)[C@@]1(O)C(=O)COP(=O)(O)O`: the “CD40L-induced NF-kB luciferase activity” value is -2.27 ± 0.67. In the case of `O=C1N[C@@H](Cc2cnc[nH]2)C(=O)N2CCC[C@@H]12` it was 5.28 ± 4.3; in that of `COc1cccc(C2CCCN2Cc2nc(CCC(C)C)no2)c1` (stereo not given), 0.228 ± 0.79. Regarding `COc1ccc(N2C(=O)C3C(C2=O)C(C(=O)c2ccccc2)N2CCCC32)cc1` (stereo not given), the “CD40L-induced NF-kB luciferase activity” value is -2.68 ± 1.2. For the compound `CCOC(=O)c1oc2cc(O)cc(C)c2c(=O)c1-c1cscn1`, the “CD40L-induced NF-kB luciferase activity” value was found to be 3.92 ± 3.1. As for `Nc1nc(Cl)nc2c1ncn2[C@@H]1O[C@H](CO)[C@@H](O)[C@H]1O`, the figure is -4.04 ± 0.72; as for `CCCCOn1c(C)c(C(C)=O)c2c3no[n+]([O-])c3ccc21`, 4.46 ± 2.4. Consider `CC(C)COC(=O)C1C(=O)CC(C)(O)C(C(=O)OCC(C)C)C1c1cccnc1` (stereo not given), for which the “CD40L-induced NF-kB luciferase activity” value was 3.96 ± 1.7.

In the case of `NC(=O)C1CCCNC1` (stereo not given), the “CD40L-induced NF-kB luciferase activity” value was determined as 1.16 ± 1.4. With `Cc1cc(=O)oc2c(CN(C)Cc3ccccc3)c(O)ccc12`, the “CD40L-induced NF-kB luciferase activity” value came to 1.68 ± 3.7. With `O=C(O)c1ccc(-c2ccc(O)c(F)c2)cc1`, the “CD40L-induced NF-kB luciferase activity” value was -1.88 ± 1.6.

Consider `Cn1cc(CN2CCCC(CO)(Cc3cccc(Cl)c3)C2)cn1` (stereo not given), for which the “CD40L-induced NF-kB luciferase activity” value amounted to 0.825 ± 1. Consider `O=C1CC(c2ccc(O)cc2)Oc2cc(O)cc(O)c21` (stereo not given), for which the “CD40L-induced NF-kB luciferase activity” value was -0.369 ± 1.6. In the case of `CC(=O)NS(=O)(=O)c1ccc(N)cc1`, the “CD40L-induced NF-kB luciferase activity” value is -4.13 ± 0.52. Regarding `CCOc1ccc(C(=O)N2CCCC2C(=O)O)cc1` (stereo not given), the “CD40L-induced NF-kB luciferase activity” value was determined as 2.22 ± 8. With `Cc1cn([C@H]2C=C[C@@H](CO)O2)c(=O)[nH]c1=O`, the “CD40L-induced NF-kB luciferase activity” value was -7.63 ± 3.5.

Consider `Cc1ccc(C=NNc2nc(C(C)(C)C)cs2)o1`, for which the “CD40L-induced NF-kB luciferase activity” value was found to be 37 ± 13. As to `c1ccc2c(CC3=NCCN3)cccc2c1`, the “CD40L-induced NF-kB luciferase activity” value was -6.05 ± 14.

Take `COc1ccc(/C=C\c2cc(OC)c(OC)cc2CC[N+](C)(C)C)cc1OC`: the “CD40L-induced NF-kB luciferase activity” value came to 1.04 ± 1.8. Take `CC(=O)OCC(=O)[C@@]12OC(C)(C)O[C@@H]1C[C@H]1[C@@H]3C[C@H](F)C4=CC(=O)C=C[C@]4(C)[C@@]3(F)[C@@H](O)C[C@@]12C`: the “CD40L-induced NF-kB luciferase activity” value was -11.4 ± 5.5. As to `COc1ccc(C(=O)CC2OC(=O)c3c2ccc(OC)c3OC)cc1` (stereo not given), the “CD40L-induced NF-kB luciferase activity” value is -12.7 ± 14. For `CCN(CC)CC(=O)Nc1c(C)cccc1C`, the “CD40L-induced NF-kB luciferase activity” value was -0.96 and -1.5. With `CC(=O)CSc1ncnc2c1cnn2-c1ccccc1`, the “CD40L-induced NF-kB luciferase activity” value is 4.76 ± 8.4. On to `CC(C)C12CN3CC(C(C)C)(CN(C1)C31C(=O)Nc3ccccc31)C2=O` (stereo not given), for which the “CD40L-induced NF-kB luciferase activity” value is -4.82 ± 5.7. Turning to `CC(=O)CCc1oc2ccccc2c1-c1ccccc1`, the “CD40L-induced NF-kB luciferase activity” value was 1.92 ± 12. Take `COc1ccc(Cc2noc(CN(C)CCN3CCc4ccccc4C3)n2)cc1OC`: the “CD40L-induced NF-kB luciferase activity” value was 0.711 ± 1.

With `NC(N)=NC(=O)c1nc(Cl)c(N)nc1N`, the “CD40L-induced NF-kB luciferase activity” value came out at 1.4 ± 3.5. In the case of `CCOC(=O)COc1ccc2c(=O)c(-c3ccccc3)coc2c1`, the “CD40L-induced NF-kB luciferase activity” value was -3.83 ± 3. As for `Cc1cccc(C)c1NS(=O)(=O)c1ccc(NC(=O)c2ccc(Cl)c([N+](=O)[O-])c2)cc1`, the “CD40L-induced NF-kB luciferase activity” value was -4.25 ± 4. Take `COC(=O)c1cc(=O)c2ccc(OC)cc2o1`: the “CD40L-induced NF-kB luciferase activity” value amounted to 5.82 ± 2.6.

Consider `CCc1ccc(/C=C2\SC(=S)N(CCC(=O)N3CCN(C)CC3)C2=O)cc1`, for which the “CD40L-induced NF-kB luciferase activity” value is 4.79 ± 10. Consider `O=S(=O)(NCCCCCNS(=O)(=O)c1ccccc1)c1ccccc1`, for which the “CD40L-induced NF-kB luciferase activity” value is -7.09 ± 9.8. For `CC12CN3CC(C)(CN(C1)C3c1ccc(Br)cc1O)C2` (stereo not given), the “CD40L-induced NF-kB luciferase activity” value was -7.16 ± 3.5. As to `CCOC(=O)/C=C1\NC(C)(C)Cc2cc(OC)c(OC)cc21`, the “CD40L-induced NF-kB luciferase activity” value is 0.283 ± 0.81. As for `CC(C)C12CN3CC(C(C)C)(CN(C1)C3c1ccccc1O)C2=O` (stereo not given), the figure is -2.808 ± 0.011.

As to `NS(=O)(=O)c1cc2c(cc1C(F)(F)F)NCNS2(=O)=O`, the “CD40L-induced NF-kB luciferase activity” value was 1.77 ± 0.71.

With `O=C(NC(=S)N1CCCCC1)c1cccnc1`, the “CD40L-induced NF-kB luciferase activity” value is -3.04 ± 2.8.
